Where “and” joins values, the source holds several entries; their conditions need not be identical. Identical values can stand only once. The campaign covered roughly 230,000 compounds. About 3,600 (1.6%) were called active. This list was built around the results that the source calls inconclusive (neither active nor inactive); the mix of calls is not that of the screen. The call rests on the fitted dose curve; in most records, active means well fitted inhibition curve with a large enough effect (not every such curve was filed as active); inconclusive means small, poorly fitted or top-dose-only effect, or another doubt; inactive means no such curve, though single readings can be large or run the other way. A potency beside an inconclusive call is a rough fit, not a confirmed value.
Biological target: Lysine-specific demethylase 4E (Homo sapiens) (UniProt B2RXH2)
Assay: qHTS Assay for Inhibitors of Human Jumonji Domain Containing 2E (JMJD2E)
Conditions: JMJD2E catalytic domain, FDH-coupled NADH fluorescence (FDH is formaldehyde dehydrogenase); series mostly up to 57.1 µM; activity change, negative = inhibition: at the top concentration
Further: nearly all actives have a fitted effect of over 50% in size.
Potency means the concentration at half of the fitted maximal effect; tags describe the fitted curve by direction and shape.
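Wherever activity change, negative = inhibition is given: 0% = wells with enzyme and -100% = buffer wells without enzyme.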

Sequence of UniProt B2RXH2 (B2RXH2 whole entry, looked up, the tested form may be a part): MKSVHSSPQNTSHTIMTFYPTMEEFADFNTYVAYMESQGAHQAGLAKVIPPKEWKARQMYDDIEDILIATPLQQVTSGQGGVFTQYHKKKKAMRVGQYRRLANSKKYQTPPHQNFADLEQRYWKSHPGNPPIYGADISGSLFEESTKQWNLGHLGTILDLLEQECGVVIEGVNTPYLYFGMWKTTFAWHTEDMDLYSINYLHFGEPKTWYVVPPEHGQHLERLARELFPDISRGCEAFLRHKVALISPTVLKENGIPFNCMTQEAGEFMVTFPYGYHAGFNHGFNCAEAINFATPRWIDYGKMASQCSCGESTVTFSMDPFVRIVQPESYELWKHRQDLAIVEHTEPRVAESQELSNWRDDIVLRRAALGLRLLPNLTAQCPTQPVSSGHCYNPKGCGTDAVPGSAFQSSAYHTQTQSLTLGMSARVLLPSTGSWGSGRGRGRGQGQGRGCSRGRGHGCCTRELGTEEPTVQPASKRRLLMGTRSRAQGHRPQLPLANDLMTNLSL

| SMILES | Potency | activity change, negative = inhibition |
| --- | --- | --- |
| CCCCNc1nc(C)nc2c1nc(-c1ccccc1)n2C(C)CCCN(CC)CC (stereo not drawn) | inconclusive: 14.1 µM [inhibitor, partial curve] |  |
| COc1ccc(-n2nc(C(=O)NCC(=O)Nc3ccccn3)c3ccccc3c2=O)cc1Cl | inconclusive: 6.31 µM [inhibitor, single point] |  |
| CN(C)c1cc(NC(=O)CNC(C)(C)CC(C)(C)C)c2ccccc2n1 | inconclusive: 31.6 µM [inhibitor, partial curve] |  |
| O=C(c1ccc(F)cc1)C1CCN(C(=O)c2ccncc2)CC1 | inconclusive: 22.4 µM [inhibitor, single point] |  |
| O=C(NCc1ccc2[nH]c3c(c2c1)CCCC3)c1ccc(S(=O)(=O)N2CCOCC2)cc1 |  | inactive: -8.51% |
| Cc1cc(NC(=O)CN2CCOCC2)n(-c2ccccc2)n1 |  | inactive: 5.59% |
| C=CCN1C(=O)C(CC(=O)Nc2ccc(C)cc2)SC1=Nc1c(C)n(C)n(-c2ccccc2)c1=O (stereo not drawn) |  | inactive: -1.58% |
| COc1ccc(/C=C/C(=O)Nc2cccc(S(=O)(=O)N3CCCC3)c2)cc1OC | inconclusive: 31.6 µM [inhibitor, partial curve] |  |
| COc1ccc(N2CC(C(=O)N/N=C/c3ccccc3)CC2=O)cc1 (stereo not drawn) |  | inactive: 11.8% |
| CCCN1Cc2cccc(C(=O)Nc3ccc(C)cc3)c2C1=O |  | inactive: 0.402% |
| CCc1nc(SCC(=O)c2ccc3c(c2)OCCO3)c2ccccc2n1 | inconclusive: 39.8 µM [inhibitor, single point] |  |
| O=c1c(-c2nc3ccccc3o2)c2oc3ccccc3n2c2ccccc12 | inconclusive: 2.82 µM [inhibitor, partial curve] |  |
| COc1ccc2c(CC(=O)NCC3CCC(C(=O)O)CC3)cc(=O)oc2c1 (stereo not drawn) | inconclusive: 25.1 µM [inhibitor, partial curve] |  |
| CC(C)N1C(=O)CSC1c1ccc(Br)cc1 (stereo not drawn) |  | inactive: 4.41% |
| CCCCn1c(=O)[nH]c(=O)c2c1nc(-c1ccc(C#N)cc1)n2C1CCCC1 | inconclusive: 10 µM [inhibitor, partial curve] |  |
| O=C1c2ccc3c4c(ccc(c24)C(=O)N1CCCCO)C(=O)N(CCCCO)C3=O | inconclusive: 25.1 µM [inhibitor, partial curve] |  |
| CC1CCN(S(=O)(=O)c2cccc(-c3nnc(-c4cccnc4)o3)c2)CC1 |  | inactive: 8.89% |
| O=C(c1cnn2c(C(F)(F)F)cc(-c3cccs3)nc12)N1CCN(Cc2ccccc2)CC1 | inconclusive: 31.6 µM [inhibitor, single point] |  |
| O=C(NCCc1ccccc1)C1CCN(c2ncccn2)CC1 | inconclusive: 22.4 µM [inhibitor, partial curve] |  |
| COc1ccc(C(=O)N=c2sc3c(C)ccc(OC)c3n2C)cc1OC | inconclusive: 28.2 µM [inhibitor, partial curve] |  |
| Cc1nc(-c2ccccc2O)n(S(=O)(=O)N(C)C)n1 |  | inactive: 4.59% |
| COc1ccc2[nH]c(=O)c(CN(C(=O)c3ccncc3)C(C)(C)C)cc2c1 | inconclusive: 28.2 µM [inhibitor, single point] |  |
| Cc1c(NC(=O)CN2c3cccc4cccc(c34)S2(=O)=O)c(=O)n(-c2ccccc2)n1C | inconclusive: 31.6 µM [inhibitor, partial curve] |  |

| SMILES | Potency | activity change, negative = inhibition |
| --- | --- | --- |
| Cc1ccc(C2NC(=O)c3c(sc4c3CCN(C)C4)N2)s1 (stereo not drawn) | inconclusive: 25.1 µM [inhibitor, partial curve] |  |
| Fc1ccc(C2CC(c3ccco3)=Nc3ccccc3S2)cc1 (stereo not drawn) | inconclusive: 28.2 µM [inhibitor, single point] |  |
| C=CCn1c(SCc2ccccc2)nnc1-c1cccnc1 |  | inactive: 9.41% |
| CCCC(=O)NCCc1c2n(c3ccc(OC)cc13)CCCc1ccccc1-2 | inconclusive: 28.2 µM [inhibitor, partial curve] |  |
| O=C(NCCc1ccccc1)C1CCN(S(=O)(=O)N2CCCC2)CC1 |  | inactive: -3.97% |
| CN(C)c1ccc(/C=N/n2ncc3ccccc32)cc1 | inconclusive: 35.5 µM [inhibitor, partial curve] |  |
| O=C(O)COc1ccc2c(-c3ccccc3)cc(=O)oc2c1 |  | inactive: -8.58% |
| Clc1ccccc1-c1nnc2sc(C3COc4ccccc4O3)nn12 (stereo not drawn) |  | inactive: 6.89% |
| COC(=O)c1ccccc1NC(=O)CC#N | inconclusive: 39.8 µM [inhibitor, single point] |  |
| CCOC(=O)CNC(=O)N1CCCC(C(=O)c2ccc3c(c2)OCO3)C1 (stereo not drawn) | inconclusive: 39.8 µM [inhibitor, single point] |  |
| Cc1ccc(-n2c(CNc3cccc(Cl)c3)n[nH]c2=S)cc1 | inconclusive: 39.8 µM [inhibitor, single point] |  |
| NC1(C(=O)O)CC(C(=O)O)C1 (stereo not drawn) | inconclusive: 28.2 µM [inhibitor, partial curve] and inconclusive: 39.8 µM [inhibitor, single point] |  |
| COC(=O)c1nc(N)sc1-c1ccccc1 | inconclusive: 28.2 µM [inhibitor, single point] |  |
| O=C(Nc1ccc(-c2cn3ccccc3n2)cc1)c1ccc(Cl)cc1 | inconclusive: 28.2 µM [inhibitor, partial curve] |  |
| O=C(O)c1ccc(N/N=C/C2=Cc3ccccc3OC2)cc1 | inconclusive: 31.6 µM [inhibitor, single point] |  |
| Nc1nc2nc(SCC(=O)N3CCCc4ccccc43)[nH]c2c(=O)[nH]1 |  | inactive: 5.03% |
| Nc1nc(-c2ccccc2)nc2sc3c(c12)CCCC3 | inconclusive: 28.2 µM [inhibitor, partial curve] |  |
| CC(=O)OCc1cc2cc(C)ccc2[nH]c1=O | inconclusive: 31.6 µM [inhibitor, single point] |  |
| O=C(c1ccncc1)N(Cc1ccco1)Cc1cc2ccccc2[nH]c1=O | inconclusive: 35.5 µM [inhibitor, single point] |  |
| CCOc1ccc(C(=O)N(Cc2ccc(OC)cc2)Cc2cc3cc(OC)ccc3[nH]c2=O)cc1 | inconclusive: 25.1 µM [inhibitor, partial curve] |  |
| C=CCc1ccc(OCCCCNC2CCCC2)c(OC)c1 | inconclusive: 35.5 µM [inhibitor, single point] |  |
| CCCN1C(=O)c2ccccc2NC1c1ccc(C)cc1 (stereo not drawn) | inconclusive: 28.2 µM [inhibitor, partial curve] |  |
| CCc1c(C)sc(NC(=O)Cn2nc(C)c([N+](=O)[O-])c2C)c1C(N)=O |  | inactive: -5.14% |

| SMILES | Potency | activity change, negative = inhibition |
| --- | --- | --- |
| COCCNc1nc(-c2cc3ccccc3o2)cs1 | inconclusive: 31.6 µM [inhibitor, single point] |  |
| CS(=O)(=O)NN1C(=O)c2ccccc2NC1c1ccccc1O (stereo not drawn) | inconclusive: 28.2 µM [inhibitor, partial curve] |  |
| CCC1CCCCN1c1ccc([N+](=O)[O-])cc1/C=N/NC(=O)Cn1c2ccccc2c(=O)c2ccccc21 (stereo not drawn) | inconclusive: 35.5 µM [inhibitor, single point] |  |
| CCOC(=O)c1cc2c(s1)-c1ccccc1CC2 | inconclusive: 28.2 µM [inhibitor, partial curve] |  |
| COCc1cc(=O)n2[nH]c(-c3cccs3)cc2n1 | inconclusive: 22.4 µM [inhibitor, partial curve] |  |
| CC(=O)Oc1cc2oc(=O)cc(C)c2cc1OC(C)=O | inconclusive: 31.6 µM [inhibitor, partial curve] |  |
| CCOC(=O)Cn1nnnc1C(CC)N(Cc1cc2c(C)cc(C)cc2[nH]c1=O)C1CCCC1 (stereo not drawn) |  | inactive: -5.85% |
| Cc1cc2c(c(=O)o1)C(CCC1CCCCC1)C(C#N)=C(N)O2 (stereo not drawn) |  | inactive: -10.1% |
| CC(C)n1c(CSCc2ccc(Cl)cc2Cl)n[nH]c1=S | inconclusive: 39.8 µM [inhibitor, single point] |  |
| CCC(=O)N1CCc2cc(S(=O)(=O)N3CCN(c4ccccn4)CC3)ccc21 | inconclusive: 39.8 µM [inhibitor, single point] |  |
| Cc1ccccc1Cn1cccc1/C=C1/C(=N)N2C=CSC2=NC1=O | inconclusive: 39.8 µM [inhibitor, single point] |  |
| O=C1c2ccccc2NC(c2ccco2)N1/N=C/c1ccco1 (stereo not drawn) | inconclusive: 28.2 µM [inhibitor, partial curve] |  |
| O=C(COC(=O)c1ccc2ccccc2c1)NCCCc1ccccc1 | inconclusive: 39.8 µM [inhibitor, single point] |  |
| O=C(/C=C/NCC(=O)c1ccccc1)c1ccc(Br)cc1 |  | inactive: -10.2% |
| CCOC(=O)CNc1c(-c2ccc(F)cc2)nc2cnccn12 | inconclusive: 31.6 µM [inhibitor, partial curve] |  |
| O=C(C1CCN(CCCc2ccccc2)CC1)N(CCc1ccccc1)Cc1ccccc1 | inconclusive: 31.6 µM [inhibitor, single point] |  |
| O=C(CSc1nnc2c(Cl)cc(C(F)(F)F)cn12)N(Cc1ccccc1)Cc1ccccc1 | inconclusive: 28.2 µM [inhibitor, single point] |  |
| O=S(=O)(c1ccccc1)N1CCN(CC2CC3C=CC2C3)CC1 (stereo not drawn) | inconclusive: 31.6 µM [inhibitor, single point] |  |
| c1ccc(-c2ccc3c(c2)NCCN3)cc1 | inconclusive: 28.2 µM [inhibitor, partial curve] |  |
| Cc1cc(C)n2nc(C(=O)Nc3ccc(S(=O)(=O)N4CCCCC4)cc3)nc2n1 | inconclusive: 35.5 µM [inhibitor, single point] |  |
| COC(=O)C(C)Sc1ccc2nnc(CCNS(=O)(=O)c3ccccc3)n2n1 (stereo not drawn) | inconclusive: 39.8 µM [inhibitor, single point] |  |
| O=C(Oc1coc(CSc2ncccn2)cc1=O)c1ccccc1[N+](=O)[O-] | inconclusive: 25.1 µM [inhibitor, single point] |  |

Source: PubChem BioAssay AID2147 (National Center for Advancing Translational Sciences (NCATS), 2009)
